In ChEMBL document CHEMBL4888484, “Replenishing the malaria drug discovery pipeline: Screening and hit evaluation of the MMV Hit Generation Library 1 (HGL1) against asexual blood stage Plasmodium falciparum ,using a nano luciferase reporter read-out” (2022):
The campaign covered roughly 150,000 compounds. About 540 (0.36%) showed an effect of 50% or more. The list shows a part of the results.

System: Plasmodium falciparum
Assay: Primary screen in NF54 nanoGlo assay, in single point, at 2uM, 72h; a lower Z score goes with more inhibition
Assay type: functional, Erythrocyte
Conditions: timepoint 72 hour

| Compound | % Inhibition | Z score |
| --- | --- | --- |
| CC(NC(=O)C1CCCN(C(=O)c2cccs2)C1)c1cccc(Cl)c1 (stereo not drawn) | 9% | -1.18 |
| Cc1cc(CNc2cccc3ccccc23)no1 | -7% | 0.68 |
| NCCOc1cccc(C(=O)N[C@H]2CCCC[C@@H]2c2ccccc2)c1 | -11% | 1.76 |
| CC(C)CC(=O)Nc1nc(C(=O)N2CCCC(C)(C)C2)cs1 | -3% | 0.4 |
| Cc1oncc1C(=O)N1CCN(c2ccc(-n3cncn3)nn2)CC1 | 10% | -1.21 |
| CCN(C1CCN(C)CC1)C1CN(C(=O)COCc2ccccc2)C1 | -7% | 0.93 |
| CC(C)N(Cc1c(-c2ccccc2)noc1N1CCCCC1)C(=O)c1ccc2c(c1)OCO2 | 14% | -1.74 |
| CC(CCS(C)(=O)=O)NC(=O)NC1CCCC(C2CC2)C1 (stereo not drawn) | 2% | -0.36 |
| O=C(CCOc1ccccc1)Nc1cccnc1 | -11% | 1.35 |
| Cc1ccc(C)c(NC(=O)C[C@H]2Cn3ncc(-c4ccccc4)c3NC2=O)c1 | -5% | 0.99 |
| CC[C@H](C)c1csc(NC(=O)NCCCOC)n1 | -12% | 1.5 |
| CC(C)N(C(=O)c1nc(-c2cnccn2)no1)C(C)C | -8% | 1.19 |
| CC(=O)c1c[nH]c(C(=O)N2CCO[C@H](c3ccc(Br)cc3)C2)c1 | 1% | -0.15 |
| CC(C)C(NC(=O)c1ccco1)C(=O)NCC1CCCO1 (stereo not drawn) | -3% | 0.28 |
| CCC[C@@H](CCO)CNC(=O)c1c(C(C)C)nn(C)c1Cl | -4% | 0.8 |
| c1ccc(N2CCN(Cc3cccc(OC4CCNCC4)c3)CC2)nc1 | 26% | -3.59 |
| C[C@@H](CNc1ncccc1C#N)c1nc2ccccc2o1 | 0% | -0.07 |
| O=C(O)C1CCCC(C(=O)NCCC2CCCO2)C1 (stereo not drawn) | -8% | 1.14 |
| CN1CCOC(CN(C(=O)C2CCOC2)c2nccs2)C1 (stereo not drawn) | -8% | 0.88 |
| COc1ccsc1S(=O)(=O)N[C@H](c1ccncc1)C(C)C | -5% | 0.83 |
| Cc1cc(Br)cc(C(=O)N(C)CC(C)(CO)CO)c1 | 1% | -0.14 |

| Compound | % Inhibition | Z score |
| --- | --- | --- |
| CC(C)c1ccc2c(c1)N=C(c1cccs1)N=C(c1cccs1)N2 | 5% | -0.6 |
| CCc1cc(C(=O)NC(CC)[C@H]2C[C@@H](O)C2)[nH]n1 (stereo partly drawn) | -10% | 1.26 |
| CCc1nc2cc(C(=O)NC[C@H]3CCS(=O)(=O)C3)cc(NC(=O)c3ccccc3OC)c2n1C | -9% | 1.74 |
| Cc1cc(C(=O)N[C@@H](C)C2(S(C)(=O)=O)CC2)n2nc(C)cc2n1 | 3% | -0.44 |
| COc1ccc2c(c1)c(CN1CCC[C@@](F)(C(=O)NCc3ccncc3)C1)cn2C | 1% | -0.24 |
| CC(CNC(=O)NC1COc2cc(F)cc(F)c21)c1nccs1 (stereo not drawn) | -2% | 0.15 |
| Cc1cccc(N2CCN(C(=O)c3ccccc3Oc3ccccc3)CC2)c1C | -4% | 0.77 |
| COCCN(CC1CC1)[C@@H](C)C(=O)Nc1ccc(F)cc1 | -3% | 0.44 |
| Cc1cc2n(n1)CCCN2CC(=O)Nc1ccc(C)c(Cl)c1 | -13% | 2.27 |
| CCCCNC(=O)c1coc(CN2C(=O)COc3ccc(C(=O)COc4ccccc4C)cc32)n1 | -7% | 1.2 |
| O=C(O)CCc1cc2n(n1)CCCN(Cc1cnn(-c3cccc(F)c3)c1)C2 | -4% | 0.67 |
| CN(C(=O)Cc1ccc2c(c1)OCO2)c1ncccc1F | 3% | -0.35 |
| Cc1nc(CCC(=O)Nc2nc3ncccn3n2)oc1-c1ccccc1 | -10% | 1.82 |
| CCOC(=O)c1cn([C@H](C(N)=O)C(C)C)cc(Oc2ccccc2)c1=O | -8% | 0.83 |
| CCCCc1nc(CN2CCC([C@]3(Cc4ccc(F)cc4)NC(=O)N(C4CCCC4)C3=O)CC2)c[nH]1 | -11% | 1.33 |
| CC[C@@H](C(N)=O)N1CCN(Cc2nc(-c3cccs3)no2)CC1 | 35% | -5.01 |
| O=C(COc1ccc(-c2nc3ccccc3s2)cc1)Nc1ccc2c(c1)OCO2 | -4% | 0.44 |
| Cc1ccc(N2C[C@@H](C(=O)NCCNc3ncccn3)CC2=O)cc1 | -6% | 1.07 |
| O=C(c1ccccc1OC[C@H]1CCCO1)N(CCO)Cc1cccnc1 | -4% | 0.46 |
| Cc1ccc(NC(=O)[C@@H]2OCC(=O)N(C)[C@@H]2c2cnn(C)c2)c(C)n1 | -2% | 0.41 |
| COc1ccc2c(c1)N1CCN(CC(=O)N3CCOCC3)CC1C(C(=O)Nc1ccccc1)C2 (stereo not drawn) | 2% | -0.23 |

| Compound | % Inhibition | Z score |
| --- | --- | --- |
| N[C@@H](CCc1ccc2c(c1)OCCO2)c1ccccc1 | -19% | 2.22 |
| Cc1ccc(C(=O)Nc2ccc3c(c2)cc(C(=O)NCc2ccncc2)n3Cc2cccc(F)c2)cc1C | 7% | -1.12 |
| O=C(NC[C@H]1OC[C@@H](NCc2cccnc2)[C@@H]1O)c1ccc(F)cc1 | -7% | 0.99 |
| CC(C)c1cc(CN(Cc2cc(C(C)C)c(O)c(C(C)C)c2)C2CCCCC2)cc(C(C)C)c1O | 95% | -12.83 |
| O=C(N[C@H]1C[C@H]2OCC[C@@H]12)c1ccncc1O | -5% | 0.84 |
| CCN(CC)c1nc(NCc2ccc(OC)cc2)c2cnn(C)c2n1 | 3% | -0.52 |
| Cc1nn(C2CCOCC2)c(C)c1C(=O)Nc1nnnn1C1CC1 | 8% | -1.3 |
| O=C(CC[C@H]1CCO1)N1CCN(C(=O)c2cccc(F)c2)CC1 | 6% | -0.89 |
| CCN(CC)c1onc(-c2ccccc2)c1CN(CC1CC1)C[C@H](O)COC(C)C | -8% | 1.04 |
| O=C(CCCc1ccccc1)N1CC[C@H](Cc2noc(C3CC3)n2)C1 | -1% | 0.12 |
| CCN(C(=O)Cn1c(=O)n(CCCS(=O)(=O)C2CCCCC2)c(=O)c2ccccc21)c1cccc(C)c1 | -3% | 0.45 |
| O=C(NCC1([C@H](O)c2ccccc2)CC1)c1cc(N2CCCC2)ccn1 | -4% | 0.48 |
| COc1ccc(NC(=O)CC(C)(C)C)c(OC)c1 | 0% | -0.01 |
| CCc1nc(CN2C(=O)[C@@H]3CCCCN3C2=O)cs1 | 10% | -1.67 |
| Cc1csc(C(NC(C)CC2CC2)C2CC2)n1 (stereo not drawn) | -9% | 0.87 |
| CC(C)(C)NC(=O)CNC(=O)c1cccc(F)c1 | 37% | -5.05 |
| O=C(C1=CCCCO1)N1CCOC2CCCCC21 (stereo not drawn) | 30% | -3.42 |
| Cc1oc(-c2ccccc2)nc1CN1CCOc2cc(N(C)C)ccc21 | -6% | 0.51 |
| CC1(C)C[C@H](O)c2cccc(NS(=O)(=O)c3cccs3)c2O1 | 1% | -0.17 |
| CCC[C@@H](CCc1ccccc1)NC(=O)c1conc1C(C)(C)N | -9% | 1.61 |
| CC1CN(C(=O)CNC(=O)c2cccs2)C(c2ccccc2)CO1 (stereo not drawn) | 4% | -0.83 |

| Compound | % Inhibition | Z score |
| --- | --- | --- |
| CN(CC1(CO)CC1)c1nccc(N2CCN[C@@H]3CS(=O)(=O)C[C@@H]32)n1 | 1% | -0.16 |
| CC[C@H](C)NC(=O)c1nc(S(C)(=O)=O)ncc1Cl | -4% | 0.68 |
| Cc1c(Cl)cncc1NC(=O)N1CCC(OC2CCC2)CC1 | -5% | 0.61 |
| Cc1nnc(-c2cccc(NC(=O)C3CCN(C(=O)C4=CCCCC4)CC3)c2)s1 | -8% | 0.72 |
| CCN(CC1CCOCC1)C(=O)C1=C(C)NC(=O)N[C@H]1C | 2% | -0.35 |
| O=C(NC(c1ccccc1)c1ccccc1)c1ccc(Oc2nccs2)cc1 | -3% | 0.6 |
| Cc1cc(C(=O)n2nc(N)cc2C2CCOCC2)c(C)n1C(C)C | 5% | -0.87 |
| CCc1nc2ccc(C(=O)N3CCC4(CC3)OC(=O)c3ccccc34)cc2s1 | -5% | 0.99 |
| Cc1cnc(C(=O)N[C@H]2CCC23CCOCC3)cn1 | 20% | -2.59 |
| CC(C)NS(=O)(=O)c1ccc2c(c1)nc(-c1cnc(C(C)C)nc1)n2C(C)C | 0% | 0.02 |
| Cc1cc(C)n(CCC(=O)N2CC[C@@H]3OCc4cccc(c4)Oc4cccc(c4)CCC(=O)N(C)CC(=O)N[C@@H]3C2)n1 | -2% | 0.3 |
| Cc1ccc(OC2(C(=O)O)CCN(c3nccs3)CC2)cc1 | -11% | 2.08 |
| CCC1(C(=O)Nc2ccc3cc(Cl)cnc3n2)CCOCC1 | -17% | 1.96 |
| Cn1cnc(-c2ccccc2)c1NC(=O)c1ccnn1C1CCC1 | -9% | 0.96 |
| Brc1ccc([C@@H]2COCCN2)cc1 | 11% | -1.61 |
| Cc1nc[nH]c1CN(Cc1c(C)nn(C)c1C)C(C)C | -7% | 0.99 |
| O=C(NCCc1ccccc1)C1Cc2cc(C(F)(F)F)ccc2N2CCN(Cc3ccc(F)cc3)CC12 (stereo not drawn) | 1% | -0.21 |
| CCCNC(=O)CCCN1CCN(C(=O)c2cscn2)[C@@H](C)C1 | 5% | -0.86 |
| CCCN(c1ncnc(CC)c1F)C1CC1 | -14% | 1.28 |
| COc1ccc(CC(C(=O)OC2CC(C)N(C)C(C)C2)c2ccccc2)cc1 (stereo not drawn) | -2% | 0.35 |
| Cc1ccc(CN[C@H]2CCOC3(CC(C(=O)O)C3)C2)c(C)c1 (stereo partly drawn) | 1% | -0.21 |
